Results as given in the supplement of paper PMC10369915.
Some of the results follow. No stated cut-off is given here; in the data, active = 3.2 or more and inactive = the rest. The signal is at background level for most entries.

Columns and labels:
Assay in all cases: enrichment score (SH2-bound / input frequency) (ratio); bacterial display of known human phosphotyrosine sites (pTyr-Var adds point mutants) read by sequencing; higher = stronger binding; tyrosines were phosphorylated by kinases first
Conditions in all cases: peptide library: pTyr-Var
[1] = target: SHP2 C-SH2 domain E139D
[2] = target: SHP2 C-SH2 domain wild-type
[3] = target: SHP2 N-SH2 domain L43F
[4] = target: SHP2 N-SH2 domain T42A
[5] = target: SHP2 N-SH2 domain T52S
[6] = target: SHP2 N-SH2 domain wild-type

Measured: enrichment score
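Further: displayed peptides selected on beads carrying the immobilized SH2 domain, with library peptides lacking any tyrosine serving as negative controls.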

RFLERYIFNPE [HLA-DPB1_Y57_R61P_YF]
inactive: [1] 1.92 | [2] 1.59 | [3] 1.79 | [4] 2.06 | [5] 1.75 | [6] 1.8

RFLERDIYNRE [HLA-DPB1_Y57_Y57D]
inactive: [1] 0.807 | [2] 0.545 | [3] 0.99 | [4] 0.655 | [5] 0.762 | [6] 0.775

LERYIYNREEF [HLA-DPB1_Y59]
inactive: [1] 1.14 | [2] 0.884 | [3] 0.786 | [4] 0.793 | [5] 0.978 | [6] 0.724

RYVTRYIYNRE [HLA-DQB1_Y62]
inactive: [1] 0.22 | [2] 0.254 | [3] 0.224 | [4] 0.232 | [5] 0.226 | [6] 0.227

RYVSRYIYNRE [HLA-DQB1_Y62_T60S]
inactive: [1] 0.112 | [2] 0.326 | [3] 0.256 | [4] 0.273 | [5] 0.68 | [6] 0.249

RFVSRYIFNRE [HLA-DQB1_Y62_T60S_YF]
inactive: [1] 0.409 | [2] 0.189 | [3] 0.436 | [4] 0.314 | [5] 0.172 | [6] 0.119

RFLTRYIFNRE [HLA-DQB1_Y62_V59L_YF]
inactive: [1] 0.349 | [2] 0.331 | [3] 0.374 | [4] 0.384 | [5] 0.329 | [6] 0.51

RGVTRYIYNRE [HLA-DQB1_Y62_Y58G]
inactive: [1] 0.257 | [2] 0.252 | [3] 0.202 | [4] 0.22 | [5] 0.199 | [6] 0.268

RLVTRYIYNRE [HLA-DQB1_Y62_Y58L]
inactive: [1] 0.312 | [2] 0.371 | [3] 0.37 | [4] 0.106 | [5] 0.112 | [6] 0.213

RFVTRSIFNRE [HLA-DQB1_Y62_Y62S_YF]
inactive: [1] 0.335 | [2] 0.321 | [3] 0.224 | [4] 0.324 | [5] 0.271 | [6] 0.231

RFVTRYIFNRE [HLA-DQB1_Y62_YF]
inactive: [1] 0.395 | [2] 0.377 | [3] 0.33 | [4] 0.557 | [5] 0.473 | [6] 0.344

GAVDTYCRHNY [HLA-DRB1_Y107_A102G]
inactive: [1] 1.36 | [2] 1.34 | [3] 0.88 | [4] 0.856 | [5] 1.2 | [6] 1.25

GAVDTYCRHNF [HLA-DRB1_Y107_A102G_YF]
inactive: [1] 1.47 | [2] 1.46 | [3] 1.34 | [4] 1.35 | [5] 1.32 | [6] 1.6

AEVDTYCRHNF [HLA-DRB1_Y107_A103E_YF]
inactive: [1] 0.936 | [2] 1.06 | [3] 0.82 | [4] 0.832 | [5] 0.965 | [6] 1.15

ALVDTYCRHNF [HLA-DRB1_Y107_A103L_YF]
inactive: [1] 1.41 | [2] 1.4 | [3] 1.31 | [4] 1.2 | [5] 1.21 | [6] 1.56

AAVDNYCRHNF [HLA-DRB1_Y107_T106N_YF]
inactive: [1] 0.87 | [2] 1.45 | [3] 1.14 | [4] 1.35 | [5] 1.01 | [6] 1.03

YCRHNYGVVES [HLA-DRB1_Y112]
inactive: [1] 2.06 | [2] 1.9 | [3] 2.1 | [4] 1.59 | [5] 1.81 | [6] 2.19

FCRHNYGAVES [HLA-DRB1_Y112_V114A_YF]
inactive: [1] 2.18 | [2] 2.18 | [3] 2.15 | [4] 1.93 | [5] 2.19 | [6] 2.33

YCRHNYGVGES [HLA-DRB1_Y112_V115G]
inactive: [1] 1.69 | [2] 1.55 | [3] 1.76 | [4] 1.48 | [5] 1.55 | [6] 1.53

FCRHNYGVGES [HLA-DRB1_Y112_V115G_YF]
inactive: [1] 1.8 | [2] 1.84 | [3] 1.61 | [4] 1.66 | [5] 1.56 | [6] 1.71

GKGGSYSKAES [HLA-E_Y341_W346S]
inactive: [1] 0.439 | [2] 0.453 | [3] 0.612 | [4] 0.378 | [5] 0.445 | [6] 0.53

QKFMAYPSQGG [HLCS_Y236_L237P]
inactive: [1] 1.87 | [2] 1.1 | [3] 1.22 | [4] 1.46 | [5] 1.31 | [6] 1.31

KLKEKYQKDIA [HMGB1_Y155_E156Q]
inactive: [1] 2.39 | [2] 2.07 | [3] 2.51 | [4] 2.15 | [5] 2.56 | [6] 2.27

GKMSSYAFFVQ [HMGB1_Y16]
inactive: [1] 1.05 | [2] 1.62 | [3] 1.09 | [4] 1.44 | [5] 1.05 | [6] 1.04

YSMGCYEISLG [HMGCL_Y198]
inactive: [1] 0.994 | [2] 1.47 | [3] 0.989 | [4] 0.983 | [5] 1.15 | [6] 1.21

FSMGCYEISLE [HMGCL_Y198_G203E_YF]
inactive: [1] 0.768 | [2] 1.17 | [3] 0.848 | [4] 0.826 | [5] 0.652 | [6] 1.22

YSMGCYEFSLG [HMGCL_Y198_I200F]
inactive: [1] 1.04 | [2] 0.825 | [3] 0.779 | [4] 0.753 | [5] 0.702 | [6] 1.24

YSMGCYEIYLG [HMGCL_Y198_S201Y]
inactive: [1] 1.29 | [2] 1.91 | [3] 1.63 | [4] 1.26 | [5] 1.17 | [6] 1.99

FSMGCYEIFLG [HMGCL_Y198_S201Y_YF]
inactive: [1] 1.77 | [2] 1.71 | [3] 1.6 | [4] 1.33 | [5] 1.49 | [6] 2.01

FSMGCYEISLG [HMGCL_Y198_YF]
inactive: [1] 0.817 | [2] 0.9 | [3] 0.795 | [4] 0.763 | [5] 0.638 | [6] 0.94

VEQIHYIGQNE [HMOX2_Y140_R137Q]
inactive: [1] 0.816 | [2] 0.658 | [3] 0.845 | [4] 0.87 | [5] 0.812 | [6] 0.907

IDDNQYAFLKA [HNF4A_Y286_E285Q_YF]
inactive: [1] 0.621 | [2] 0.688 | [3] 0.714 | [4] 0.57 | [5] 0.753 | [6] 0.662

DNQYAYLKAII [HNF4A_Y288_E285Q]
inactive: [1] 0.776 | [2] 0.745 | [3] 0.837 | [4] 0.968 | [5] 0.751 | [6] 0.543

GGGGSYNDFGN [HNRNPA1_Y312]
inactive: [1] 0.574 | [2] 0.679 | [3] 0.54 | [4] 0.574 | [5] 0.488 | [6] 0.984

NVFGNYNNQSS [HNRNPA1_Y318_D314V]
inactive: [1] 1.26 | [2] 0.963 | [3] 0.81 | [4] 0.829 | [5] 0.805 | [6] 1.2

NDFGNYSNQSS [HNRNPA1_Y318_N319S]
inactive: [1] 0.472 | [2] 0.358 | [3] 0.4 | [4] 0.492 | [5] 0.444 | [6] 0.4

RSSGSYGGGGQ [HNRNPA1_Y341_P340S]
inactive: [1] 0.605 | [2] 0.581 | [3] 0.569 | [4] 0.44 | [5] 0.431 | [6] 0.712
